# Source: PubChem BioAssay (Tox21)
# Several values for one entry are separate records, joined by “and”; a condition that tells them apart may be missing. Equal entries are not always repeated. The shares of active, inactive and inconclusive entries below differ from those in the screen. Potencies of inconclusive entries are doubtful fits and often do not repeat. A structure can be active in one record and inactive in another. Activity calls are given as the source filed them. Unless noted, calls come from the whole dose curve; as a rule, active = well fitted curve in the direction sought with a large enough effect in the repeat runs; inconclusive = weak or mixed curves; inactive = no such curve, though single readings can be large; an effect the other way counts as inactive or inconclusive.
# Key:
# [1] = qHTS assay for small molecule agonists of the antioxidant response element (ARE) signaling pathway (AID 743202; active = well fitted activation curve with a large enough effect in the signal ratio in the repeat runs, not every such curve was filed as active; inconclusive = weak or mixed curves, or effect the other way; inactive = no such curve, though single readings can be large or run the other way; the % refers to the signal ratio; for activation: % is set by controls: 0 for no effect and ±100 for the full control effect); settings: HepG2 ARE-bla reporter, beta-lactamase FRET, 16 h; activation: at 73.3 µM (top of the series) unless noted
# How it was run: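 Following a 16 h, 37 C exposure of reporter HepG2 cells (ARE-driven beta-lactamase, 2,000 cells/well) to compounds, FRET substrate was applied for 2 h at room temperature and fluorescence intensity recorded.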
# [2] = molecular target: Peroxisome proliferator-activated receptor delta (Homo sapiens) (UniProt Q03181); experiment: qHTS assay to identify small molecule antagonists of the peroxisome proliferator-activated receptor delta (PPARd) signaling pathway (AID 743215; active = well fitted inhibition curve with a large enough effect in the signal ratio in the repeat runs, not every such curve was filed as active; inconclusive = weak or mixed curves, or effect the other way; inactive = no such curve, though single readings can be large or run the other way; the % refers to the signal ratio;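 note: cells stimulated with agonist L165041 at 300 nM final during compound exposure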; for ratio activity, negative = inhibition: % is set by controls: 0 for no effect and ±100 for the full control effect); settings: HEK293H PPARd-UAS-bla, beta-lactamase FRET ratio, antagonist, 17 h; ratio activity, negative = inhibition: at 62 µM (top of the series) unless noted
# Sequence of UniProt Q03181 (Q03181 whole entry, looked up): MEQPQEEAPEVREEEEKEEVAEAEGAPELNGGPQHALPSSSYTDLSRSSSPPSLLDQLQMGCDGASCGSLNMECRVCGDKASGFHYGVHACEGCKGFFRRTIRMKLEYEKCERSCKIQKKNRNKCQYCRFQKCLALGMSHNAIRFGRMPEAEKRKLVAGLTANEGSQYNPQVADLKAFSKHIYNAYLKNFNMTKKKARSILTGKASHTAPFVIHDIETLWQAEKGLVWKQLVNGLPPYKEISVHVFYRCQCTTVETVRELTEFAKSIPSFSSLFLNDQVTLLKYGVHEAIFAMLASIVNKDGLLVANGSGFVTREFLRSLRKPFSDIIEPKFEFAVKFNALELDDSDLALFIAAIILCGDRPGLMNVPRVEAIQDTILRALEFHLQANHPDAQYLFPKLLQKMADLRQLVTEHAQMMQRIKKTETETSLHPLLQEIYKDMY
# How it was run: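 Fluorescence from cleaved LiveBLAzer B/G FRET substrate (2 h, room temperature) reports PPARd-driven beta-lactamase in HEK293H UAS-bla cells. Cells had been treated 17 h at 37 C with compound plus 300 nM final L165041.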
# [3] = qHTS assay for small molecule activators of the heat shock response signaling pathway - cell viability counter screen (AID 743209); settings: HSE-bla HeLa viability, CellTiter-Glo luminescence, 5 h; activity change, negative = cytotoxicity: at 62.6 µM (top of the series) unless noted; note: nearly all actives have a fitted effect of over 50% in size; for activity change, negative = cytotoxicity: % is set by controls: 0 for no effect and ±100 for the full control effect
# How it was run: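 Same-well multiplex: after 2.5 h room-temperature incubation with LiveBLAzer B/G substrate and fluorescence reading, CellTiter-Glo reagent was added to HSE-bla HeLa cells that had received compound for 5 h at 37 C; luminescence read after 30 min.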
# [4] = qHTS assay for small molecule activators of the heat shock response signaling pathway (AID 743210; active = well fitted activation curve with a large enough effect in the signal ratio in the repeat runs, with a control signal flat, not every such curve was filed as active; inconclusive = weak or mixed curves; the % refers to the signal ratio); settings: HeLa HSE-bla reporter, beta-lactamase ratio, 5 h; activation: at 62.6 µM (top of the series) unless noted
# How it was run: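 Heat shock element–beta-lactamase HeLa reporter cells; qHTS with compounds for 5 h at 37 C; detection by FRET substrate fluorescence after 2.5 h at RT.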
# [5] = qHTS assay to identify small molecule agonists of the peroxisome proliferator-activated receptor delta (PPARd) signaling pathway - cell viability counter screen (AID 743211); settings: PPARd-bla HEK293H viability, CellTiter-Glo luminescence, 17 h; activity change, negative = cytotoxicity: at 62.6 µM (top of the series); note: nearly all actives have a fitted effect of over 55% in size
# How it was run: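 In the same wells used for beta-lactamase reporter measurement, cytotoxicity is scored by CellTiter-Glo. HEK293H PPARd-bla cells receive compound for 17 h at 37C following a 5 h settling period.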
# [6] = molecular target: Peroxisome proliferator-activated receptor delta (Homo sapiens) (UniProt Q03181); experiment: qHTS assay to identify small molecule agonists of the peroxisome proliferator-activated receptor delta (PPARd) signaling pathway (AID 743212; calls by dose curve;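 note: HEK293H cells with PPARd UAS beta-lactamase reporter GeneBLAzer system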; for activation: % is set by controls: 0 for no effect and ±100 for the full control effect); settings: HEK293H PPARd-UAS-bla, beta-lactamase FRET ratio, 17 h; activation: at 62.6 µM (top of the series) unless noted
# How it was run: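 Beta-lactamase reporter read by fluorescence (LiveBLAzer B/G FRET, 2 h, room temperature). Test agents, in DMSO, incubated at 37 C with PPARd-bla HEK293H cells.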
# [7] = qHTS assay for small molecule agonists of the antioxidant response element (ARE) signaling pathway - cell viability counter screen (AID 743203; calls by dose curve; note: nearly all actives have a fitted effect of over 55% in size); settings: ARE-bla HepG2 viability, CellTiter-Glo luminescence, 16 h; viability change, negative = cytotoxic: at 73.3 µM (top of the series)
# How it was run: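 Measured in the same wells as the beta-lactamase ARE reporter, this read-out is CellTiter-Glo luminescence from HepG2 ARE-bla cells given compounds for 16 hrs.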
# [8] = qHTS assay to identify small molecule antagonists of the peroxisome proliferator-activated receptor delta (PPARd) signaling pathway - cell viability counter screen (AID 743213); settings: PPARd-bla HEK293H viability, CellTiter-Glo luminescence, 17 h; viability change, negative = cytotoxic: at 62 µM (top of the series) unless noted; note: nearly all actives have a fitted effect of over 50% in size
# How it was run: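 HEK293H cells with the PPARd UAS-bla reporter, co-treated 17 h at 37 C with compounds and L165041 (300 nM final), were lysed with CellTiter-Glo. Luminescence indicated viable cell content.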
# [9] = molecular target: Bile acid receptor (Homo sapiens) (UniProt Q96RI1); experiment: qHTS assay to identify small molecule antagonists of the farnesoid-X-receptor (FXR) signaling pathway (AID 743217; active = well fitted inhibition curve with a large enough effect in the signal ratio in the repeat runs, not every such curve was filed as active; inconclusive = weak or mixed curves, or effect the other way; inactive = no such curve, though single readings can be large or run the other way; the % refers to the signal ratio); settings: HEK293T FXR-UAS-bla, beta-lactamase ratio, CDCA-stimulated, 16 h; activity change, negative = inhibition: at 62.6 µM (top of the series) unless noted
# Sequence of UniProt Q96RI1 (Q96RI1 whole entry, looked up): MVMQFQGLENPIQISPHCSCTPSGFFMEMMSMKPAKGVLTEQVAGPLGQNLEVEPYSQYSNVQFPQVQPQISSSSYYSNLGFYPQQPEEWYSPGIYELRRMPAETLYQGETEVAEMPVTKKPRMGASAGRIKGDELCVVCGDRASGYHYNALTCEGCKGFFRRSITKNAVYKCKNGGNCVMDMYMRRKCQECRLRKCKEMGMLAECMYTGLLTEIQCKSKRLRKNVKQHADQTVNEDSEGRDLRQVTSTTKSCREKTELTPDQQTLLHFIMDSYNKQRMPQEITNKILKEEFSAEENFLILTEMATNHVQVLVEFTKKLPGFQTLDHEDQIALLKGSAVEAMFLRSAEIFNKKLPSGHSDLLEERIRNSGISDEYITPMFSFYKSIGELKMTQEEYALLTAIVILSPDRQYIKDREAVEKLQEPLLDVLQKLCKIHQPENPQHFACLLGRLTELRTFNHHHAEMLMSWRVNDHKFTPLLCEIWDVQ
# How it was run: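 FRET fluorescence after 2 h room-temperature LiveBLAzer loading gives the readout. Prior step: FXR-bla HEK 293T cells, seeded and incubated 5 h, received test compounds plus 50 uM final CDCA for 16 h at 37 °C.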
# Potency is the fitted concentration of half-maximal effect; tags give direction and shape of the fitted curve or compound fluorescence and quenching.
compound,measurement,setting,value
Cl[C@H]1OCCO[C@@H]1Cl,activation,[1],inconclusive: 20.2%
same,Potency,[2],"inconclusive: 21.4 µM [fluorescent, single point]"
[CH3][Sn]([CH3])([Cl])[Cl],Potency,[3],"inconclusive: 54.9 µM [cytotoxic, single point]"
same,Potency,[4],inconclusive: 15.1 µM and inconclusive: 13.3 µM
same,Potency,[5],"inconclusive: 55.9 µM [cytotoxic, single point] and inconclusive: 54.9 µM [cytotoxic, single point]"
same,Potency,[6],inconclusive: 61.6 µM
same,activation,[6],inconclusive: 1.4% [at 81.1 µM]
same,Potency,[2],"inconclusive: 61.6 µM [rising, single point]"
same,"ratio activity, negative = inhibition",[2],inconclusive: 2.73% [at 80.4 µM]
CN1CSC(=S)N(C)C1,Potency,[7],"inconclusive: 3.84 µM [cytotoxic, full curve]"
same,Potency,[3],active: 1.09 µM
same,Potency,[4],inconclusive: 1.8 µM and inconclusive: 2.02 µM
same,Potency,[5],"inconclusive: 10.9 µM [cytotoxic, partial curve]"
same,Potency,[8],active: 7.72 µM and active: 5.48 µM
same,Potency,[9],inconclusive: 7.72 µM [full curve] and inconclusive: 8.69 µM [full curve]
O=C(N[C@H]1CN2CCC1CC2)c1cc2ccoc2cn1,Potency,[1],"inconclusive: 7.7 µM [falling, partial curve, poor fit]"
same,"ratio activity, negative = inhibition",[2],inconclusive: -38.7%
CN(C)CCc1c[nH]c2ccccc12,"activity change, negative = cytotoxicity",[3],inconclusive: 0.256% [cytotoxic] [at 81.1 µM]
same,Potency,[4],inconclusive: 114 µM [activator]
same,Potency,[8],inactive
CNC(=O)Oc1ccccc1C1OCCO1,Potency,[3],"inconclusive: 21.8 µM [cytotoxic, single point]"
same,Potency,[4],inconclusive: 21.8 µM [single point]
CCCN(CCC)c1c([N+](=O)[O-])cc(C(F)(F)F)cc1[N+](=O)[O-],Potency,[1],inactive
same,Potency,[2],inactive
CC(=O)c1cc(C(C)(C)C)cc2c1CCC2(C)C,Potency,[3],"inconclusive: 54.9 µM [cytotoxic, single point]"
same,Potency,[4],inconclusive: 52.9 µM
same,Potency,[5],"inconclusive: 61.6 µM [cytotoxic, single point]"
CCOC(=O)C(O)(c1ccc(Cl)cc1)c1ccc(Cl)cc1,Potency,[7],"inconclusive: 61.1 µM [cytotoxic, single point]"
same,Potency,[3],active: 7.84 µM
same,Potency,[6],inconclusive: 55.5 µM [single point]
same,Potency,[8],active: 22.1 µM and inconclusive: 54.9 µM [cytotoxic]
Cc1ccc(OP(=O)(Oc2ccccc2)Oc2ccccc2)cc1,Potency,[1],inconclusive: 31.1 µM
same,"activity change, negative = inhibition",[9],inconclusive: -20.5% [at 81.1 µM]
O=P(O)(O)CN(CP(=O)(O)O)CP(=O)(O)O,Potency,[1],inactive
same,Potency,[2],inactive
Oc1ccc(Cl)cc1Cc1ccccc1,Potency,[3],active: 54.9 µM and active: 45.4 µM
same,Potency,[4],inconclusive: 52.9 µM and inconclusive: 49.5 µM and inconclusive: 31.6 µM
same,Potency,[5],"active: 54.9 µM and inconclusive: 35.1 nM [cytotoxic, full curve, poor fit] and inconclusive: 29.8 µM [cytotoxic, partial curve, poor fit]"
same,activation,[6],inconclusive: 8.94% [phenotype inactive] [at 81.1 µM]
same,Potency,[8],"inconclusive: 24.5 µM [cytotoxic, full curve, poor fit] and active: 44.2 µM"
same,Potency,[2],"inconclusive: 0.0079 µM [fluorescent, full curve, poor fit]"
CCCN(CC)CC1COC2(CCC(C(C)(C)C)CC2)O1 (configuration not stated),Potency,[1],"inconclusive: 68.6 µM [rising, partial curve, poor fit]"
same,"ratio activity, negative = inhibition",[2],inconclusive: 2.62%
CNC(C)Cc1ccc2c(c1)OCO2 (configuration not stated),Potency,[3],"inconclusive: 53.2 µM [cytotoxic, partial curve, poor fit]"
same,Potency,[4],inconclusive: 72.3 µM
same,Potency,[5],"inconclusive: 84.3 µM [cytotoxic, single point]"
same,Potency,[6],inconclusive: 84.3 µM [single point]
same,Potency,[8],"inconclusive: 532 nM [cytotoxic, full curve, poor fit]"
same,Potency,[2],"inconclusive: 75.1 µM [fluorescent, partial curve]"
Oc1cc(Cl)c(Cl)cc1Cl,Potency,[3],"inconclusive: 43.3 µM [cytotoxic, partial curve, poor fit]"
same,Potency,[8],"inconclusive: 433 nM [cytotoxic, single point]"
CC(C)CC(C)(c1ccc(O)cc1)c1ccc(O)cc1,Potency,[3],"active: 55.1 µM and inconclusive: 54.9 µM [cytotoxic, single point]"
same,Potency,[4],inconclusive: 59.5 µM and inconclusive: 58.2 µM
same,Potency,[6],inconclusive: 61.8 µM [single point]
same,activation,[6],inconclusive: 23.4%
same,Potency,[8],"inconclusive: 55.1 µM [cytotoxic, single point] and inconclusive: 54.9 µM [cytotoxic, single point]"
same,Potency,[9],inconclusive: 55.1 µM and inconclusive: 54.9 µM
